Reference: the supplement of paper PMC12217912
The list shows a part of the results. The full chains were built here from the parent and the listed change. Values near 0.05 are background.

B1: TEV protease; numbered along this chain (parent)
chain: MGESLFKGPRDYNPISSSICHLTNESDGHTTSLYGIGFGPFIITNKHLFRRNNGTLVVQSLHGVFKVKDTTTLQQHLVDGRDMIIIRMPKDFPPFPQKLKFREPQREERICLVTTNFQTKSMSSMVSDTSCTFPSGDGIFWKHWIQTKDGQCGSPLVSTRDGFIVGIHSASNFTNTNNYFTSVPKNFMELLTNQEAQQWVSGWRLNADSVLWGGHKVFMVKPEEPFQPVKEATQL

Variants of: B1
Assay: raw area under fraction-flipped curve 0-4 h after induction (AUC4h, not background-subtracted), DNA-recorder readout of cleavage of the substrate (dimensionless); higher = more cleavage of the substrate by the protease variant
Settings: temperature: 34 °C; time window: 0-4 h after rhamnose induction
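Further: Bxb1 expression induced with 0.2% (w/v) L-rhamnose at OD600 near 0.5, cultures sampled hourly, flipped fraction per protease–substrate barcode pair counted by paired-end Illumina sequencing.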

Variant | area with substrate ENLYEQS | area with substrate ENLYGQS | area with substrate ENLYIQS | area with substrate ENLYQQS | area with substrate ENLYRQS | area with substrate ENLYWQS | area with substrate ENLYHQS | area with substrate ENLYKQS | area with substrate ENLYNQS | area with substrate ENLYSQS | area with substrate ENLYTQS | area with substrate ENLYYQS | area with substrate ENLYPQS | area with substrate ENLYMQS | area with substrate ENLYVQS | area with substrate ENLYLQS
MGESLFKGPRDYNPISSSICHLTNESDGHTTSLYGIGFGPFIITNKHLFRRNNGTLVVQSLHGVFKVKDTTTLQQHLVDGRDMIIIRMPKDFPPFPQKLKFREPQREERICLVTTNFQTKSMSSMVSDTSCTFPSGDGIFWKHWIQTKDGQCGSPLVSTRDGFIVLIHSASNFTNTNNYFTSVPKNFMELLTNQEAQQWVSGWRLNADSVLWGGHKVFMVKPEEPFQPVKEATQL [G166L] | 0.0336 | 0.0608 | 0.0458 | 0.0686 | 0.0467 | 0.0436 |  |  |  |  |  |  |  |  |  | 
MGESLFKGPRDYNPISSSICHLTNESDGHTTSLYGIGFGPFIITNKHLFRRNNGTLVVQSLHGVFKVKDTTTLQQHLVDGRDMIIIRMPKQFPPFPQKLKFREPQREERICLVTTNFQTKSMSSMVSDTSCTFPSGDGIFWKHWIQTKDGQCGSPLVSTRDGFIVGIHSASNFTNTNNYFTSVPKNFMELLTNQEAQQWVSGWRLNADSVLWGGHKVFMVKPEEPFQPVKEATQL [D91Q] | 0.0694 | 0.0622 |  | 0.0575 |  |  | 0.0653 | 0.0194 | 0.0566 | 0.0472 | 0.0856 | 0.0355 |  |  |  | 
MGESLVKGPRDYNPISSSICHLTNESDGHTTSLYGIGFGPFIITNKHLFRRNNGTLVVQSLHGVFKVKDTTTLQQHLVDGRDMIIIRMPKDFPPFPQKLKFREPQREERICLVTTNFQTKSMSSMVSDTSCTFPSGDGIFWKHWIQTKDGQCGSPLVSTRDGFIVGIHSASNFTNTNNYFTSVPKNFMELLTNQEAQQWVSGWRLNADSVLWGGHKVFMVKPEEPFQPVKEATQL [F6V] | 0.0654 | 0.0572 | 0.122 |  | 0.0652 |  | 0.0789 |  |  |  |  |  | 0.0705 |  |  | 
MGESLFKGPRDYNPISSSICHLTNESDGHTTSLYGIGFGPFIITNKHLFRRNNGTLVVQSLHGVFKVKDTTTLQQHLVDGRDMIIIRMPKDFPPFPQKLKFREPEREERICLVTTNFQTKSMSSMVSDTSCTFPSGDGIFWKHWIQTKDGQCGSPLVSTRDGFIVGIHSASNFTNTNNYFTSVPKNFMELLTNQEAQQWVSGWRLNADSVLWGGHKVFMVKPEEPFQPVKEATQL [Q105E] | 0.0516 | 0.0673 |  | 0.0536 | 0.0716 | 0.0663 |  |  |  | 0.0846 |  |  | 0.0802 | 0.0879 | 0.121 | 
MGESLFKGPRDYNPISSSICHLTNESDGHTTSLYGIGFGPFIITNKHLFRRNNGTLVVQSLHGVFKVKDTTTLQQHGVDGRDMIIIRMPKDFPPFPQKLKFREPQREERICLVTTNFQTKSMSSMVSDTSCTFPSGDGIFWKHWIQTKDGQCGSPLVSTRDGFIVGIHSASNFTNTNNYFTSVPKNFMELLTNQEAQQWVSGWRLNADSVLWGGHKVFMVKPEEPFQPVKEATQL [L77G] | 0.0676 |  | 0.0664 | 0.104 | 0.0706 | 0.053 |  | 0.0233 | 0.0642 |  |  |  |  | 0.0577 | 0.0667 | 
MGESLFKGPRDYNPISSSICHLTNESDGHTTSLYGIGFGPFIITNKHLFRRNNGTLVVQSLHGVFKVKDTTTLQQHLVDGRDMIIIRMPKDFPPFPQKLKFREPQREERICLVTTNFQTKSMSSMVSDTSCTFPSGDGIFWKHWIQTKDGQCGSPLVITRDGFIVGIHSASNFTNTNNYFTSVPKNFMELLTNQEAQQWVSGWRLNADSVLWGGHKVFMVKPEEPFQPVKEATQL [S158I] | 0.0572 | 0.0576 |  |  |  | 0.0502 | 0.0558 |  |  |  |  |  | 0.0515 |  |  | 
MGESLFKGPRDYNPISSSICHLTNESDGHTTSLYGIGFGPFIITNKHLFRRNNGTLVVQSLHGVFKVKDTTTLQQHLVDGRDMIIIRMPKDFAPFPQKLKFREPQREERICLVTTNFQTKSMSSMVSDTSCTFPSGDGIFWKHWIQTKDGQCGSPLVSTRDGFIVGIHSASNFTNTNNYFTSVPKNFMELLTNQEAQQWVSGWRLNADSVLWGGHKVFMVKPEEPFQPVKEATQL [P93A] | 0.0708 | 0.0603 | 0.119 | 0.064 |  | 0.0744 |  | 0.0439 | 0.0707 | 0.0671 |  | 0.0792 | 0.0671 | 0.0845 | 0.122 | 0.0766
MGESLFKGPRDYNPISSSICHLTNESDGHTTSLYGIGFGPFIITNKHLFRRNNGTLVVQSLHGVFKVKDTTTLQQHLVDGRDMIIIRMPKDFPPFPQKLKFREPQREERICLVTTNFQTKSMSSMVSDTSCTFPSGDGIFWKHWIQTKDGQCGSPLVSTRDGFIVGIHSASNFTNTNNYFTSVPKNFMELLTNQMAQQWVSGWRLNADSVLWGGHKVFMVKPEEPFQPVKEATQL [E195M] | 0.114 |  |  |  | 0.0636 |  | 0.0692 |  | 0.0708 |  |  | 0.0667 |  | 0.0778 | 0.117 | 
MGESLFKGPRDYNPISSSICHLTNESDGHTTSLYGIGFGPFIITNKHLFRRNNGTLVVQSLHGVFKVKDTTTLQQHLVDGRDMIIIRMPKDFPPFPQKLKFREPQREERICLVTTNFQTKSMSSMVSDTSCTFPSGDGIFWKHWIQTKDGQCGMPLVSTRDGFIVGIHSASNFTNTNNYFTSVPKNFMELLTNQEAQQWVSGWRLNADSVLWGGHKVFMVKPEEPFQPVKEATQL [S154M] | 0.0688 | 0.0677 | 0.132 |  |  | 0.079 | 0.0744 | 0.0653 |  | 0.0508 | 0.055 |  | 0.054 | 0.0879 | 0.112 | 
MGESLFKQPRDYNPISSSICHLTNESDGHTTSLYGIGFGPFIITNKHLFRRNNGTLVVQSLHGVFKVKDTTTLQQHLVDGRDMIIIRMPKDFPPFPQKLKFREPQREERICLVTTNFQTKSMSSMVSDTSCTFPSGDGIFWKHWIQTKDGQCGSPLVSTRDGFIVGIHSASNFTNTNNYFTSVPKNFMELLTNQEAQQWVSGWRLNADSVLWGGHKVFMVKPEEPFQPVKEATQL [G8Q] | 0.0573 | 0.0636 |  |  | 0.0745 |  | 0.0774 |  |  | 0.1 |  |  | 0.0493 |  |  | 0.0878
MGESLFKGPRDYNPISSSICHLTNESDGHTTSLYGIGFGPFIITNKHLFRRNNGTLVVQSLHGVFKVKDTTTLQQHLVDGRDMIIIRMPKDFPPFPQKLKFREPQREERICLVTTNFQTKSMSSMVSDTSCTFPSGDGIFWKHWIQTKDGQCGSPLVSTRDGFIVGIHSASNFTNTNNYFTSNPKNFMELLTNQEAQQWVSGWRLNADSVLWGGHKVFMVKPEEPFQPVKEATQL [V183N] | 0.0527 | 0.0703 |  |  |  | 0.0611 | 0.0632 | 0.0366 | 0.0607 |  |  |  | 0.0721 | 0.0757 |  | 0.0855
